Our source for the Potency values is PubChem BioAssay AID360 (National Center for Advancing Translational Sciences (NCATS), 2006).

Each structure is given as a SMILES string. Screen size: about 48,000 compounds; about 550 (1.1%) were called active. Another 4% or so got no clear call; they are omitted. Cut-off read from the data, not from the text of the source: active = potency below about 15 µM; inconclusive = mostly about 16 µM to 33 µM; inactive = weaker than that. This is one part of the list. Some results are limits rather than exact numbers.
Potency is the fitted concentration of half-maximal effect.

Chain of UniProt P04062 (P04062 whole entry, looked up): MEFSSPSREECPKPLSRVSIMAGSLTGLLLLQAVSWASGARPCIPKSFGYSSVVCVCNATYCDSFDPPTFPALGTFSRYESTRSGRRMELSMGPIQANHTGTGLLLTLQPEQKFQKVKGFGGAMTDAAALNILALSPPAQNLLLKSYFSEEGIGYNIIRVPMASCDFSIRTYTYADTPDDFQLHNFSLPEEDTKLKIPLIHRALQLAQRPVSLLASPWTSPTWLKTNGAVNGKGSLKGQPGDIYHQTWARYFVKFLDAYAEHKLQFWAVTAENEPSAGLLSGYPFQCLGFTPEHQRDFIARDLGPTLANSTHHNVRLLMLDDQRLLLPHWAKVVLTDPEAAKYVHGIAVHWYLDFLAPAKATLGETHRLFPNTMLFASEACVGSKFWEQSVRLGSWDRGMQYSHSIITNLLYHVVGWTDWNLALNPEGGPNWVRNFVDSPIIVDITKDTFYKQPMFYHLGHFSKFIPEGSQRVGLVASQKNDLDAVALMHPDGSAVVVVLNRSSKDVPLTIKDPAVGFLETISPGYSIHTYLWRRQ

This assay has as its target Lysosomal acid glucosylceramidase (Homo sapiens) (UniProt P04062). Kind of assay: Glucocerebrosidase.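 Note: the screen sought inhibitors.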 As to conditions: purified enzyme, resorufin glucoside fluorescence (screen aimed at inhibitors), 20 min. The procedure, abridged:
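Normal human glucocerebrosidase (0.2 nM final) was assayed with resorufin β-D-glucopyranoside (30 uM final) in 50mM citric acid/KH2PO4, 10mM sodium taurocholate, 0.01% tween-20, pH 5.9. Compounds were titrated; fluorescence (Ex 548, Em 600) read after 20 min at RT.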
Take `CC1(C)Cc2nc3sc4c(=O)n(CC(=O)NCc5ccco5)cnc4c3cc2CO1`: the Potency is inactive: > 76.9 µM.
On to `COc1ccc(CNc2oc(Cc3cccc4ccccc34)nc2C#N)cc1`, for which the Potency is inactive: > 76.9 µM.
For `Cc1onc(-c2ccccc2)c1C(=O)NCc1ccccn1`, the Potency was inactive: > 76.9 µM.
Consider `O=C(Nc1ccc(N2CCOCC2)c(Cl)c1)c1ncn[nH]1`, for which the Potency is inactive: > 76.9 µM.
Regarding `O=C(CSc1nnnn1-c1ccc(Cl)cc1)N1CCc2ccccc2C1`, the Potency is inactive: > 76.9 µM.
Under `CN(C1CCCCC1)S(=O)(=O)c1ccc(S(=O)(=O)N2CCCC2)cc1` stands inactive: > 76.9 µM; under `CCC(C)(C(=O)NC1CCCC1)N(C(=O)CNC(C)=O)c1ccc(C)cc1` (stereo unspecified), inactive: > 76.9 µM.
Consider `COC(=O)c1ccc(C(=O)OC)c(NS(C)(=O)=O)c1`, for which the Potency is inactive: > 76.9 µM.
Take `COc1ccc(NC(=O)C2CCCN(S(=O)(=O)c3cccnc3)C2)cc1` (stereo unspecified): the Potency was inactive: > 76.9 µM.
Under `CCc1ccc2nc(NC3=NCN(CCN4CCOCC4)CN3)nc(C)c2c1` stands inactive: > 76.9 µM; under `O=C(C1CCC(CNS(=O)(=O)c2cccs2)CC1)N1CCCCC1` (stereo unspecified), inactive: > 76.9 µM; under `Cc1nc(NC2=NCN(Cc3ccco3)CN2)nc2ccccc12`, inactive: > 76.9 µM.
In the case of `O=C(OCc1nnc(-c2ccccc2)o1)c1ccc2c(c1)OCCO2`, the Potency is inactive: > 76.9 µM.
Under `O=C(O)C1CSC(c2ccccc2)N1C(=O)c1ccco1` (stereo unspecified) stands inactive: > 76.9 µM; under `Cn1nnnc1SCc1cc(=O)[nH]c2ccccc12`, inactive: > 76.9 µM.
Under `O=S(=O)(Nc1ncccc1O)c1ccc(Cl)cc1` stands inactive: > 76.9 µM; under `Cc1ccc(NC(=O)C(C)Sc2nnc(-c3cccnc3)o2)cc1` (stereo unspecified), inactive: > 76.9 µM.
As to `COc1ccccc1CNc1nc2nc(C)cc(=O)n2[nH]1`, the Potency is inactive: > 76.9 µM.
Under `CCc1ccc2c(COC(=O)c3n[nH]c4ccccc34)cc(=O)oc2c1` stands inactive: > 76.9 µM.
The figure for `COc1cccc(-c2nn(C)c3sc(C(=O)Nc4ccc5c(c4)OCCO5)cc23)c1` is inactive: > 76.9 µM; for `O=C(CCCn1c(=S)[nH]c2cc3c(cc2c1=O)OCO3)N1CCN(c2ccccc2)CC1` it is “inactive”.
With `COC(=O)C1=C(C(=O)c2ccc(C)cc2)C(c2ccc(OC)c(OC)c2)n2nnnc2N1` (stereo unspecified), the Potency entry was “inactive”.
Under `O=C1CN2C(=Nc3ccc(Cl)cc3C2c2ccccc2)CN1` (stereo unspecified) stands active: 1.26 µM; under `CCCCn1nnnc1SCC(=O)Nc1ccc2c(c1)OCO2`, inactive: > 76.9 µM.
Turning to `Cn1cnnc1SCC(=O)Nc1sccc1C#N`, the Potency is inactive: > 76.9 µM.
The figure for `CCOC(=O)Cc1csc(SCC(=O)/C(C#N)=C(\C)N)n1` is inactive: > 76.9 µM.
